Consider 74 sequences from paper PMC5892938.

The other results are listed elsewhere or left out. At the low end of the ranking, values are background and their order means little.

For the assay, the target named is GST-SBP-SLBP (stem-loop binding protein) (UniProt Q14493). The experiment in a line: targeted RNA Bind-n-Seq.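 Also: DESeq read counts versus GST-SBP nonspecific binding control pulldown.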 The conditions noted are these: RBNS binding buffer: 25 mM Tris pH 7.5, 150 mM KCl, 3 mM MgCl2, 0.1% Tween, 0.5 mg/mL BSA, 1 mM DTT; 27 nM protein, 750 pM RNA pool; temperature not stated; high values mean tight binding.
Take “GGUCACGUCUCAAUCAACUCUAUUUCCAGGGAAAACCCUGGCUUUCUCAACAGCUCGCAGUCAAG”: the binding signal (log2 fold change) was -0.0657. In the case of “GGUCACGUCUCAAUCAACUCUUUCUCAGGAGUUUUCUCCUGCUUAUUCAACAGCUCGCAGUCAAG” it was -0.0855; in that of “GGUCACGUCUCAAUCAACUCUAUCCCAGGAGUUUACUCCUGUUUACUCAACAGCUCGCAGUCAAG”, -0.0195; in that of “GGUCACGUCUCAAUCAACUCAUUUCCAGGAGUUUCCUCCUGUAUUUUCAACAGCUCGCAGUCAAG”, 0.131. As to “GGUCACGUCUCAAUCAACUCAACUUCCAGGGAAACCCCUGGUAAAUUCAACAGCUCGCAGUCAAG”, the binding signal (log2 fold change) was -0.181. As to “GGUCACGUCUCAAUCAACUCUUCUCCCAGGGAAAUCCCUGGCUUACUCAACAGCUCGCAGUCAAG”, the binding signal (log2 fold change) was found to be 0.219. Consider “GGUCACGUCUCAAUCAACUCUAUUCCCAGGGAAAUCCCUGGCUAUUUCAACAGCUCGCAGUCAAG”, for which the binding signal (log2 fold change) is -0.172. “GGUCACGUCUCAAUCAACUCAGUCUCAGGAGUUUUCUCCUGUAUUUUCAACAGCUCGCAGUCAAG”: the binding signal (log2 fold change) is -0.133. For “GGUCACGUCUCAAUCAACUCUAACGAGGGGGGGAAAACCCCUUUACCCUCAUACUCAACAGCUCGCAGUCAAG” the value was 0.0444; for “GGUCACGUCUCAAUCAACUCAUUUCCCAGGGAAACCCCUGGCAUUUUCAACAGCUCGCAGUCAAG”, 0.0607. As to “GGUCACGUCUCAAUCAACUCUUUUCCAGGAGUUUACUCCUGCUUAUUCAACAGCUCGCAGUCAAG”, the binding signal (log2 fold change) was -0.178.

Take “GGUCACGUCUCAAUCAACUCUAUUCCAGGAGUUUCCUCCUGUUUACUCAACAGCUCGCAGUCAAG”: the binding signal (log2 fold change) was -0.0573. As for “GGUCACGUCUCAAUCAACUCACAAGAGGGGGGGAAAACCCCUUUACCCUCAAUUUCAACAGCUCGCAGUCAAG”, the binding signal (log2 fold change) is -0.115. Regarding “GGUCACGUCUCAAUCAACUCAACUUCAGGAGUUUACUCCUGUUUACUCAACAGCUCGCAGUCAAG”, the binding signal (log2 fold change) came out at 0.0839. Take “GGUCACGUCUCAAUCAACUCAGAAGAGGGGGGGAAAACCCCUUUGCCCUCAAUAUCAACAGCUCGCAGUCAAG”: the binding signal (log2 fold change) was -0.0258.

Turning to “GGUCACGUCUCAAUCAACUCAUCCUCCAGGGAAACCCCUGGUUAUCUCAACAGCUCGCAGUCAAG”, the binding signal (log2 fold change) was determined as 0.107.

Consider “GGUCACGUCUCAAUCAACUCAUCUUCAGGAGUUUGCUCCUGCUAACUCAACAGCUCGCAGUCAAG”, for which the binding signal (log2 fold change) turned out to be 0.185. As for “GGUCACGUCUCAAUCAACUCUUCUUCAGGAGUUUACUCCUGUAUUUUCAACAGCUCGCAGUCAAG”, the binding signal (log2 fold change) is -0.0895.

For “GGUCACGUCUCAAUCAACUCAAUGGAGGGGGGGAAAACCCCUUUACCCUCAAUAUCAACAGCUCGCAGUCAAG”, the binding signal (log2 fold change) was -0.286. On to “GGUCACGUCUCAAUCAACUCUAUUCCCAGGGAAAUCCCUGGUUAACUCAACAGCUCGCAGUCAAG”, for which the binding signal (log2 fold change) was -0.138. In the case of “GGUCACGUCUCAAUCAACUCUUCCUCAGGAGUUUCCUCCUGUUUACUCAACAGCUCGCAGUCAAG”, the binding signal (log2 fold change) is -0.0449.

For the sequence “GGUCACGUCUCAAUCAACUCUUCCCCCAGGGAAAGCCCUGGUUAACUCAACAGCUCGCAGUCAAG”, the binding signal (log2 fold change) was -0.0275.

As for “GGUCACGUCUCAAUCAACUCUAUCUCCAGGGAAACCCCUGGCAAUGUCAACAGCUCGCAGUCAAG”, the binding signal (log2 fold change) was 0.0551. Regarding “GGUCACGUCUCAAUCAACUCUUAAGAGGGGGGGAAAACCCCUUUACCCUCAUUUUCAACAGCUCGCAGUCAAG”, the binding signal (log2 fold change) was -0.259. Turning to “GGUCACGUCUCAAUCAACUCAUUUCCAGGAGUUUCCUCCUGUAGUCUCAACAGCUCGCAGUCAAG”, the binding signal (log2 fold change) was 0.0973. In the case of “GGUCACGUCUCAAUCAACUCUUCUUCCAGGGAAACCCCUGGCUUUUUCAACAGCUCGCAGUCAAG”, the binding signal (log2 fold change) is -0.0384.

Regarding “GGUCACGUCUCAAUCAACUCAACUUCCAGGGAAAUCCCUGGUAAUCUCAACAGCUCGCAGUCAAG”, the binding signal (log2 fold change) is -0.0858.

As for “GGUCACGUCUCAAUCAACUCUACUUCCAGGGAAACCCCUGGUAUUCUCAACAGCUCGCAGUCAAG”, the binding signal (log2 fold change) is 0.278. Regarding “GGUCACGUCUCAAUCAACUCAACUUCAGGAGUUUACUCCUGUAUUCUCAACAGCUCGCAGUCAAG”, the binding signal (log2 fold change) came to 0.0532.

In the case of “GGUCACGUCUCAAUCAACUCAUCCCCAGGAGUUUACUCCUGCUAUUUCAACAGCUCGCAGUCAAG”, the binding signal (log2 fold change) is -0.0351. For “GGUCACGUCUCAAUCAACUCUAUUUCAGGAGUUUACUCCUGCUAACUCAACAGCUCGCAGUCAAG”, the binding signal (log2 fold change) stood at 0.0206.

Regarding “GGUCACGUCUCAAUCAACUCAUCUCCCAGGGAAAACCCUGGCAAUCUCAACAGCUCGCAGUCAAG”, the binding signal (log2 fold change) was -0.0791. For the sequence “GGUCACGUCUCAAUCAACUCUAUUCCAGGAGUUUCCUCCUGUUAUUUCAACAGCUCGCAGUCAAG”, the binding signal (log2 fold change) turned out to be 0.18.

On to “GGUCACGUCUCAAUCAACUCUUCUCCCAGGGAAAGCCCUGGUAUUUUCAACAGCUCGCAGUCAAG”, for which the binding signal (log2 fold change) was determined as 0.0462. “GGUCACGUCUCAAUCAACUCCAAAGAGGGGGGGAAAACCCCUUUACCCUCACAUUCAACAGCUCGCAGUCAAG”: the binding signal (log2 fold change) is -0.148.

As to “GGUCACGUCUCAAUCAACUCAACUUCAGGAGUUUCCUCCUGCAAUUUCAACAGCUCGCAGUCAAG”, the binding signal (log2 fold change) amounted to 0.245. For the sequence “GGUCACGUCUCAAUCAACUCAGUCUCAGGAGUUUCCUCCUGCAUUCUCAACAGCUCGCAGUCAAG”, the binding signal (log2 fold change) was -0.0682. With “GGUCACGUCUCAAUCAACUCAGUUCCAGGAGUUUACUCCUGUAUUUUCAACAGCUCGCAGUCAAG”, the binding signal (log2 fold change) was -0.226.

With “GGUCACGUCUCAAUCAACUCAAUUUCAGGAGUUUUCUCCUGUAUUUUCAACAGCUCGCAGUCAAG”, the binding signal (log2 fold change) worked out at 0.102. As for “GGUCACGUCUCAAUCAACUCUUUCUCCAGGGAAAUCCCUGGUUAACUCAACAGCUCGCAGUCAAG”, the binding signal (log2 fold change) was -0.0842. For “GGUCACGUCUCAAUCAACUCCCAAAGGUUUUUCUCAGAACCACCCAUCAACAGCUCGCAGUCAAG” the value was 0.402; for “GGUCACGUCUCAAUCAACUCUAUUUCAGGAGUUUUCUCCUGUUAUCUCAACAGCUCGCAGUCAAG”, -0.000102; for “GGUCACGUCUCAAUCAACUCAUCCUCCAGGGAAAACCCUGGUAAAUUCAACAGCUCGCAGUCAAG”, -0.179. Turning to “GGUCACGUCUCAAUCAACUCUUUCGAGGGGGGGAAAACCCCUUUACCCUCACUUUCAACAGCUCGCAGUCAAG”, the binding signal (log2 fold change) is -0.496. In the case of “GGUCACGUCUCAAUCAACUCUUCCUCAGGAGUUUUCUCCUGCAUACUCAACAGCUCGCAGUCAAG”, the binding signal (log2 fold change) worked out at 0.0201. With “GGUCACGUCUCAAUCAACUCAACUUCCAGGGAAAGCCCUGGCAAAUUCAACAGCUCGCAGUCAAG”, the binding signal (log2 fold change) was found to be 0.0995. As to “GGUCACGUCUCAAUCAACUCUUCGGAGGGGGGGAAAACCCCUUUACCCUCAUUAUCAACAGCUCGCAGUCAAG”, the binding signal (log2 fold change) worked out at 0.00422. As for “GGUCACGUCUCAAUCAACUCUCUCGAGGGGGGGAAAACCCCUUUACCCUCUUACUCAACAGCUCGCAGUCAAG”, the binding signal (log2 fold change) is -0.11.

For “GGUCACGUCUCAAUCAACUCAACAGAGGGGGGGAAAACCCCUUUACCCUCCUAUUCAACAGCUCGCAGUCAAG”, the binding signal (log2 fold change) is -0.19. For “GGUCACGUCUCAAUCAACUCUAUUUCCAGGGAAAGCCCUGGCUAUCUCAACAGCUCGCAGUCAAG”, the binding signal (log2 fold change) is -0.236.

For the sequence “GGUCACGUCUCAAUCAACUCAAUUUCCAGGGAAAUCCCUGGCAUACUCAACAGCUCGCAGUCAAG”, the binding signal (log2 fold change) is 0.298. Regarding “GGUCACGUCUCAAUCAACUCAAUAGAGGGGGGGAAAACCCCUUUGCCCUCAAUAUCAACAGCUCGCAGUCAAG”, the binding signal (log2 fold change) was -0.221. Regarding “GGUCACGUCUCAAUCAACUCAUCCUCAGGAGUUUACUCCUGUUUAGUCAACAGCUCGCAGUCAAG”, the binding signal (log2 fold change) is 0.0607. As for “GGUCACGUCUCAAUCAACUCUUUAGAGGGGGGGAAAACCCCUUUACCCUCACCAUCAACAGCUCGCAGUCAAG”, the binding signal (log2 fold change) was determined as 0.0104. For the sequence “GGUCACGUCUCAAUCAACUCCAAAGAGGGGGGGAAAACCCCUUUACCCUCGUAAUCAACAGCUCGCAGUCAAG”, the binding signal (log2 fold change) is -0.204. With “GGUCACGUCUCAAUCAACUCUACUCCAGGAGUUUUCUCCUGUUAACUCAACAGCUCGCAGUCAAG”, the binding signal (log2 fold change) was -0.095. For “GGUCACGUCUCAAUCAACUCAUCUUCAGGAGUUUUCUCCUGUGUAUUCAACAGCUCGCAGUCAAG” the value was -0.035. With “GGUCACGUCUCAAUCAACUCAUUCCCCAGGGAAACCCCUGGUUAAUUCAACAGCUCGCAGUCAAG”, the binding signal (log2 fold change) is -0.052. As for “GGUCACGUCUCAAUCAACUCCAAAGAGGGGGGGAAAACCCCUUUACCCUCGUCAUCAACAGCUCGCAGUCAAG”, the binding signal (log2 fold change) is -0.128. Take “GGUCACGUCUCAAUCAACUCAACUCCCAGGGAAAGCCCUGGUUUUCUCAACAGCUCGCAGUCAAG”: the binding signal (log2 fold change) came to 0.0722. With “GGUCACGUCUCAAUCAACUCCAUGGAGGGGGGGAAAACCCCUUUACCCUCAUCCUCAACAGCUCGCAGUCAAG”, the binding signal (log2 fold change) is -0.35. Take “GGUCACGUCUCAAUCAACUCAAACGAGGGGGGGAAAACCCCUUUACCCUCAACUUCAACAGCUCGCAGUCAAG”: the binding signal (log2 fold change) came to 0.35. As to “GGUCACGUCUCAAUCAACUCAUCCCCAGGAGUUUGCUCCUGUAAAUUCAACAGCUCGCAGUCAAG”, the binding signal (log2 fold change) is -0.112. For the sequence “GGUCACGUCUCAAUCAACUCAACUUCCAGGGAAAACCCUGGCUAUUUCAACAGCUCGCAGUCAAG”, the binding signal (log2 fold change) is 0.0207.

As for “GGUCACGUCUCAAUCAACUCAUCCUCAGGAGUUUCCUCCUGCUUUCUCAACAGCUCGCAGUCAAG”, the binding signal (log2 fold change) worked out at 0.112. For the sequence “GGUCACGUCUCAAUCAACUCAUUCCCCAGGGAAACCCCUGGCUAUUUCAACAGCUCGCAGUCAAG”, the binding signal (log2 fold change) was -0.223. For the sequence “GGUCACGUCUCAAUCAACUCAUCUCCCAGGGAAAACCCUGGCUAUUUCAACAGCUCGCAGUCAAG”, the binding signal (log2 fold change) worked out at 0.00982. Turning to “GGUCACGUCUCAAUCAACUCUUUCUCCAGGGAAAACCCUGGCAUUCUCAACAGCUCGCAGUCAAG”, the binding signal (log2 fold change) came to 0.0686. As to “GGUCACGUCUCAAUCAACUCAACUUCAGGAGUUUUCUCCUGUUAUUUCAACAGCUCGCAGUCAAG”, the binding signal (log2 fold change) was -0.0564.

Consider “GGUCACGUCUCAAUCAACUCCACUGAGGGGGGGAAAACCCCUUUACCCUCCAAAUCAACAGCUCGCAGUCAAG”, for which the binding signal (log2 fold change) was determined as 0.0798.

Take “GGUCACGUCUCAAUCAACUCAGUUUCCAGGGAAACCCCUGGUUUAUUCAACAGCUCGCAGUCAAG”: the binding signal (log2 fold change) was -0.0957.

Regarding “GGUCACGUCUCAAUCAACUCAACUCCAGGAGUUUACUCCUGCUAUUUCAACAGCUCGCAGUCAAG”, the binding signal (log2 fold change) was 0.037.

As for “GGUCACGUCUCAAUCAACUCUUUCCCCAGGGAAACCCCUGGCAAUUUCAACAGCUCGCAGUCAAG”, the binding signal (log2 fold change) turned out to be 0.111. “GGUCACGUCUCAAUCAACUCAUUCUCCAGGGAAAACCCUGGUUAUUUCAACAGCUCGCAGUCAAG”: the binding signal (log2 fold change) was -0.274.
